In PubChem BioAssay AID493208 (National Center for Advancing Translational Sciences (NCATS), 2011):
Screen size: about 44,000 compounds; about 340 (0.77%) were called active. This list was built around the results that the source calls inconclusive (neither active nor inactive); the mix of calls is not that of the screen. The call rests on the fitted dose curve; in most records, active means well fitted inhibition curve with a large enough effect; inconclusive means small, poorly fitted or top-dose-only effect; inactive means flat fitted curve, though single readings scatter. Potencies of inconclusive entries are left out as doubtful fits.

Assay: Acumen qHTS Assay for Inhibitors of the mTORC1 Signaling Pathway in MEF (Tsc2-/-, p53-/-) Cells: Sytravon; further: nearly all actives have a fitted effect of over 50% in size
Conditions: phospho-rpS6 immunofluorescence/PI, 24 h; series mostly up to 38.3 µM
Method in brief: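 Read-out: phospho-S6 Alexa-488 intensity over PI intensity per well, scored as % active cells using thresholds from rapamycin (7.5 nM) and DMSO controls. Tsc2-/-, p53-/- MEFs exposed to compound for 24 h; PI cell count recorded as viability.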
Potency means the concentration at half of the fitted maximal effect; tags describe the fitted curve by direction and shape.

SMILES	Potency
O=C(NCc1ccc2c(c1)CCN2C(=O)c1ccccc1)c1ccccc1	inactive
Cc1ccc2oc3c(c(=O)c2c1)C(c1ccccc1F)N(CCCN(C)C)C3=O (configuration not stated)	inconclusive [falling, full curve, poor fit]
Cc1ccc(S(=O)(=O)N2CCc3cc(C(=O)Nc4ccc(C(F)(F)F)cc4)ccc32)cc1	inconclusive [falling, single point]
COc1ccc(CNS(=O)(=O)c2cc3c4c(c2)CCN4C(=O)CC3)cc1	inconclusive [falling, full curve, poor fit]
Cc1cc(C)cc(NC(=O)c2ccc3c(c2)nnn3C2CCCC2)c1	inactive
O=C(c1cc(-c2cccc(Cl)c2)on1)N1CCN(c2ccccc2)CC1	inconclusive [falling, single point]
CCOc1ccccc1NC(=O)N(Cc1ccc(F)cc1)C1CCN(CC)CC1	active: 14.7 µM
N#Cc1ccc(C(=O)NCc2ccc3c(c2)CCN3C(=O)c2ccc(F)cc2)cc1	inactive
Cc1ccc(CN2CCCn3nc(C(=O)NC(C)C)cc3C2=O)cc1	inconclusive [activator, partial curve, poor fit]
CCC1CCc2nc3sc(C(=O)Nc4ccc(C)cc4)c(N)c3cc2C1 (configuration not stated)	active: 18.5 µM
CC(C)NC(=O)c1ccc(-n2c(-c3ccccc3)cc3c2CCCC3)cc1	inconclusive [falling, partial curve, poor fit]
CCOC(=O)c1ccc(CN(Cc2ccc(Cl)cc2Cl)S(=O)(=O)c2ccc(F)c(C)c2)cc1	inconclusive [falling, partial curve, poor fit]
CCCCCSc1nnc2c(n1)OC(CC)Nc1ccc(Br)cc1-2 (configuration not stated)	inactive
Cc1cc(C)cc(Nc2nc3ccccc3n3cnnc23)c1	inconclusive [falling, partial curve, poor fit]
COc1ccc(CCNc2nc(-c3ccc(F)cc3)cc(C(F)(F)F)n2)cc1OC	inconclusive [falling, full curve, poor fit]
CC(NC(=O)c1c2c(nc3ccccc13)C(=O)N(C1CCCCC1)C2)c1ccccc1 (configuration not stated)	inconclusive [falling, single point]
O=C(Cn1c(-c2cccs2)cc2cc(F)ccc21)NCCCN1CCN(c2ccccc2F)CC1	inconclusive [falling, partial curve, poor fit]
O=C(Cn1cc(SCc2ccccc2)c2ccccc21)N1CCCCCC1	inconclusive [falling, partial curve, poor fit]
CS(=O)(=O)c1oc(-c2ccc(F)cc2)nc1S(=O)(=O)c1ccc(Cl)cc1	inconclusive [falling, single point]
O=C(CSc1nc2c(sc3ccccc32)c(=O)n1CCCC(=O)NC1CCCC1)Nc1ccc(F)cc1	inactive
Cc1ccc(Nc2c(-c3ccsc3)nc3cccc(C)n23)cc1	inconclusive [falling, partial curve, poor fit]

SMILES	Potency
CC(NC(=O)C1CCN(C(=O)c2ccc(-n3ccc4ccccc43)s2)CC1)c1ccccc1 (configuration not stated)	inactive
COc1ccc(NC(=O)Cn2c(=O)n(Cc3ccco3)c(=O)c3cc(OC)c(OC)cc32)cc1	inconclusive [falling, single point]
COCc1cc(C)nc2sc(C(=O)Nc3ccc(OC(F)(F)F)cc3)c(N)c12	inconclusive [falling, single point]
CCOC(=O)C1CCCN(S(=O)(=O)c2ccc3c(c2)CCN3C(=O)CC)C1 (configuration not stated)	inconclusive [falling, partial curve, poor fit]
Cc1cc(C)c(NC(=O)Cn2c(=O)n(Cc3ccc4c(c3)OCO4)c(=O)c3ccccc32)c(C)c1	inactive
CCC1=Nc2cc(C(=O)NCc3ccccc3Cl)ccc2Sc2ccc(C)cc21	inconclusive [falling, partial curve]
Cc1ccc(-n2nc(CO)c(C(=O)NCc3cccnc3)n2)cc1C	inconclusive [falling, partial curve, poor fit]
CCN1C(=O)c2ccccc2Sc2ccc(NC(=O)Nc3cc(C)cc(C)c3)cc21	inactive
Cc1ccnc(NC(c2cccc(O)c2)c2ccc3ccc(C)nc3c2O)c1 (configuration not stated)	inconclusive [falling, partial curve, poor fit]
O=C(Cn1c(=O)n(-c2ccccc2)c(=O)c2c3c(sc21)CCC3)c1ccc(Br)cc1	inactive
CC(C)CCNC(=O)CCCn1c(=O)c2cccn2c2ccccc21	inconclusive [falling, partial curve, poor fit]
COc1ccccc1N1CCN(S(=O)(=O)c2cc(C(=O)Nc3ccc(Oc4ccccc4)cc3)ccc2F)CC1	inactive
COc1ccccc1NC(=O)CSc1nnc2c(n1)[nH]c1ccccc12	inconclusive [falling, single point]
CCOCCc1nn2c(=O)cc(COC(=O)c3ccc(NC(=O)c4cccs4)cc3)nc2s1	inconclusive [falling, single point]
CCOC(=O)c1c(NC(=O)c2ccc(S(=O)(=O)N3CCCC(C)C3)cc2)sc2c1CC(C)(C)NC2(C)C (configuration not stated)	inconclusive [falling, single point]
CCCC1=Nc2cc(C(=O)NCc3ccccc3)ccc2Sc2ccccc21	inconclusive [falling, single point]
O=C(NCC1CCN(Cc2cccc(F)c2)CC1)c1cc2ccc3cccnc3c2[nH]1	inconclusive [falling, single point]
COc1ccc(S(=O)(=O)NC2(C(F)(F)F)NC(=O)N(CCc3ccc(OC)c(OC)c3)C2=O)cc1 (configuration not stated)	inconclusive [falling, single point]
COc1cc(C2C(C(=O)OC(C)C)=C(C)N=C3SCCC(=O)N32)ccc1OCc1ccccc1 (configuration not stated)	inactive
COc1ccc(OC)c(NC(=O)c2c(NCc3ccc(C)o3)sc3c2CCCCC3)c1	inconclusive [falling, single point]
O=C(Cn1cc(S(=O)(=O)N2CCN(c3ccccc3F)CC2)c2ccccc2c1=O)Nc1cccc(C(F)(F)F)c1	inconclusive [falling, partial curve, poor fit]

SMILES	Potency
Cc1cc(N2CCN(C)CC2)nc2ccc(NC(=O)Nc3ccc(Cl)cc3)cc12	inactive
Cc1cc(NC(=O)c2oc3c(c2C)-c2[nH]ncc2CC3)ccc1Br	inactive
CCCCOc1ccc(C(=O)Nc2sc3c(c2C(=O)OCC)CCCCC3)cc1	inactive
COc1ccccc1N1CCN(S(=O)(=O)c2ccc3c(c2)CCCN3C(C)=O)CC1	inconclusive [falling, partial curve, poor fit]
CCc1ccccc1-n1c(SCC(=O)Nc2ccc(C)cc2)nc2n[nH]c(C)c2c1=N	inconclusive [falling, single point]
Cc1ccccc1CNC(=O)CN1CCSc2ccccc21	inconclusive [falling, single point]
CCCCOC(=O)c1ccc(NC(=O)c2ccc3c(c2)CCCN3S(C)(=O)=O)cc1	inconclusive [falling, single point]
Cc1ccccc1C(=O)Nc1sc2c(c1C(=O)N1CCCCC1)CCC(C(C)(C)C)C2 (configuration not stated)	inconclusive [falling, single point]
CCOC(=O)c1cccc(NC(=O)CCn2c(=O)oc3ccccc32)c1	inconclusive [activator, partial curve, poor fit]
CCC1CCc2nc3sc(C(=O)Nc4cccc(F)c4)c(N)c3cc2C1 (configuration not stated)	inconclusive [falling, partial curve, poor fit]
COc1ccc(N2CCN(CCCNC(=O)c3nnc(Cc4ccc(F)cc4)o3)CC2)cc1	inconclusive [falling, single point]
CCOc1ccc(CCNC(=O)c2ccc3c(c2)N(Cc2ccc(F)cc2)CCS3)cc1	inconclusive [falling, partial curve, poor fit]
O=C(Cn1cc(S(=O)(=O)Cc2cccc(Cl)c2)c2ccccc21)Nc1ccccc1C(F)(F)F	active: 18.5 µM
CC(C)Cc1cc(C(=O)NCc2ccc(Cl)cc2)no1	inconclusive [falling, single point]
COc1ccc(OC)c(NC(=O)c2c(NCc3ccc(OC)c(OC)c3)sc3c2CCC(C)C3)c1 (configuration not stated)	inconclusive [falling, single point]
CCN1CCOC(=O)C1CC(=O)Nc1ccc(C)c(Cl)c1 (configuration not stated)	inconclusive [falling, single point]
COc1cc(NS(=O)(=O)c2ccc3[nH]c4c(c3c2)CCCC4)cc(OC)c1OC	inconclusive [falling, partial curve, poor fit]
Cc1cc(-c2ccc(S(=O)(=O)Nc3cc(Cl)ccc3C)s2)on1	inconclusive [falling, partial curve, poor fit]
O=C(CCc1ccccc1)N1CCc2c([nH]c3ccccc23)C1c1ccc(Cl)cc1 (configuration not stated)	inconclusive [falling, partial curve, poor fit]
Cc1ccc(O)c(NC(=O)c2cc(-c3ccc(F)cc3)on2)c1	inconclusive [activator, partial curve, poor fit]
